Patent publication US20230130791A1, “A Combined Inhibition of EGFR and NRF2 in The Treatment of Malignant Glioma” (United States Government as represented by the Department …, priority 2020, published 2023)

Key:
[1] = test system: Nrf2 target genes (xCT/SLC7A11, GCLM, NQO1); assay: Expression of Nrf2 target genes/proteins in Mayo PDX explant cultures; assay type: cell-based, human
[2] = test system: Nrf2; assay: Nrf2 luciferase reporter (ARE-NanoLuc reporter); assay type: cell-based; settings: erlotinib-induced

C#Cc1cccc(Nc2ncnc3cc(OCCOC)c(OCCOC)cc23)c1 [Erlotinib, erlotinib]
Nrf2 target genes (xCT/SLC7A11, GCLM, NQO1) ([1]; erlotinib 1 μM, 24 h, GBM12 cells): induces
NQO1 protein ([1]; in response to erlotinib): upregulation
xCT/SLC7A11 protein ([1]; in response to erlotinib): increase
SLC7A11, NQO1, and GCLM expression ([1]; multiple PDX lines): induced
activity of an Nrf2 luciferase reporter (ARE-NanoLuc reporter) [2]: increased
